The supplement of paper PMC10126150
Sequences with one replicate were seen in a single cluster, so their values are uncertain.

Tested on: ATP
Test: switch fluorescence ratio, 500 uM ATP over buffer (Cy3 cluster intensity, sum of 5 cycles each) (fold (ratio)); higher = stronger signal-on switching upon ATP binding; sequences stand for … in TCGTCGGCAGCGTCAGATGTGTATAAGAGACAGTTTTTTTTTTTTTTTTTTTTTTTTT…TC
Details: aptamer strand: ATP DNA aptamer (quencher-CACCTGGGGGAGTATTGCGGAGGAAGG + anchor), 100 nM annealed; ATP concentration: 500 uM; one replicate
Summary of the method: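 Imaging in selection buffer was followed by imaging after 15 min with 500 uM ATP at 22 °C, for Cy3-labelled switching-strand clusters annealed to 100 nM quencher-labelled ATP aptamer on a modified Illumina MiSeq flow-cell. Five of these buffer/ATP cycles ran, separated by NaOH stripping and re-annealing. The fluorescence ratio per cluster is summed target-cycle over summed buffer-cycle Cy3 intensity, averaged per switch-domain sequence; clusters outside 100-1000 RFU were removed.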
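Further: ATP exposure 15 min at 22 °C before imaging.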

## GCTCTGTGTG
  switch fluorescence ratio: 1.02

## CCAGGAGTTC
  switch fluorescence ratio: 1.03

## TCCAGCCAGA
  switch fluorescence ratio: 1.02

## ATACGGCGG
  switch fluorescence ratio: 0.983

## AACCCACTGA
  switch fluorescence ratio: 1.02

## TTTGGAAGAG
  switch fluorescence ratio: 0.959

## AAAGCTCAGG
  switch fluorescence ratio: 1.04

## GAGAGCTGCT
  switch fluorescence ratio: 0.956

## GTTTTTAGCT
  switch fluorescence ratio: 1.06

## AAAACCCTTC
  switch fluorescence ratio: 1.19

## AAGGCCGCGA
  switch fluorescence ratio: 1.28

## ATCGCAGGGC
  switch fluorescence ratio: 1.55

## ATAGGGTAGC
  switch fluorescence ratio: 1.01

## CAGCATGTGT
  switch fluorescence ratio: 1.02

## AAAATAACGG
  switch fluorescence ratio: 1.01

## AGTTCTGAAT
  switch fluorescence ratio: 1.02

## TGTCTCTGAC
  switch fluorescence ratio: 1.02

## TACGTAATAA
  switch fluorescence ratio: 1.41

## CAGTGAAAAT
  switch fluorescence ratio: 1.01

## GGGAAAGTAG
  switch fluorescence ratio: 1

## ACTGAGTATG
  switch fluorescence ratio: 0.99

## CCCAGTTAAC
  switch fluorescence ratio: 1.02

## TTCTTATTTG
  switch fluorescence ratio: 1.04

## TTTGATAGAC
  switch fluorescence ratio: 0.964

## TACCTACCTA
  switch fluorescence ratio: 1.3

## CGAGATAGTG
  switch fluorescence ratio: 0.935

## ATTCAGAATC
  switch fluorescence ratio: 0.997

## CGGAGTTGTC
  switch fluorescence ratio: 1.01

## GGTGGACTGC
  switch fluorescence ratio: 1.03

## CGCGCGTAGG
  switch fluorescence ratio: 1.06

## GGTCGTGTCA
  switch fluorescence ratio: 0.984

## CGAGGGAATA
  switch fluorescence ratio: 3.67

## TGGGCGGCGC
  switch fluorescence ratio: 1.01

## TAGAGGTTCA
  switch fluorescence ratio: 1

## CGTCGACGGT
  switch fluorescence ratio: 0.99

## TTAATATCTG
  switch fluorescence ratio: 0.997

## AGTAGACTGT
  switch fluorescence ratio: 1.02

## CAGCGGCCTG
  switch fluorescence ratio: 0.979

## GGTAATTACG
  switch fluorescence ratio: 1.06

## GTCATAAAAG
  switch fluorescence ratio: 1.01

## AATCAGAAGG
  switch fluorescence ratio: 1.02

## TGTGGACGGT
  switch fluorescence ratio: 0.969

## CGACGGGTG
  switch fluorescence ratio: 1.1

## CGCAGGTGTA
  switch fluorescence ratio: 1.71

## GGTTGTCAAC
  switch fluorescence ratio: 1.02

## GCCTGCAGGC
  switch fluorescence ratio: 0.992

## TCAACGCAGT
  switch fluorescence ratio: 1.05

## CTACGGAAGA
  switch fluorescence ratio: 2.25

## CTAACCCTGT
  switch fluorescence ratio: 1.03

## GCATGGGCAA
  switch fluorescence ratio: 1.02

## ATGGGTTCCA
  switch fluorescence ratio: 1.01

## GACCCGGCGA
  switch fluorescence ratio: 1.1

## CAACGGCACG
  switch fluorescence ratio: 1.01

## ATATCTATG
  switch fluorescence ratio: 0.992

## CCCGCAGGGA
  switch fluorescence ratio: 3.42

## TGTTCTTT
  switch fluorescence ratio: 0.989

## CCATTTTGAT
  switch fluorescence ratio: 1

## GGATAACCAT
  switch fluorescence ratio: 0.984

## AAATTGTGGA
  switch fluorescence ratio: 1.03

## CCCGCCGGTA
  switch fluorescence ratio: 1.02

## TAGAGGCATT
  switch fluorescence ratio: 1.31

## GGGTTGCATT
  switch fluorescence ratio: 1.01

## TCGGAACTAA
  switch fluorescence ratio: 0.987

## TTGTAATGGT
  switch fluorescence ratio: 0.965

## CTGCGTAGAC
  switch fluorescence ratio: 1.67

## CATTAAAACT
  switch fluorescence ratio: 0.976

## GAAGGGTGA
  switch fluorescence ratio: 1.01

## TTAGAGGGCT
  switch fluorescence ratio: 1.02

## TAAGGAGGAA
  switch fluorescence ratio: 1.01

## AGAGTTTGTT
  switch fluorescence ratio: 0.965

## ACTGGTGCAA
  switch fluorescence ratio: 0.976

## AAAATGTGGC
  switch fluorescence ratio: 1

## TCGTTCAGAG
  switch fluorescence ratio: 1

## GGGCAGTTTA
  switch fluorescence ratio: 0.995

## TGGCACCTGA
  switch fluorescence ratio: 1.03

## TATGGAAATT
  switch fluorescence ratio: 1.02

## ATGGATCGGC
  switch fluorescence ratio: 0.982

## TGTTCACCAC
  switch fluorescence ratio: 1.04

## TAAGATGCAT
  switch fluorescence ratio: 0.987

## AGCGGTGTCG
  switch fluorescence ratio: 1.04

## TAATACTTTA
  switch fluorescence ratio: 0.994

## AGCAGAGCCA
  switch fluorescence ratio: 1.02

## TGAGCTAAGA
  switch fluorescence ratio: 0.999

## AAACCTTCGC
  switch fluorescence ratio: 2.9

## AGTGAGTCAA
  switch fluorescence ratio: 0.973

## GAGTTTAACT
  switch fluorescence ratio: 0.973

## CCCTTGGCTA
  switch fluorescence ratio: 1.06

## AAAGACGCGT
  switch fluorescence ratio: 0.984

## AGGGAGAGA
  switch fluorescence ratio: 1

## TGTCAAACTA
  switch fluorescence ratio: 0.994

## CGTTTGAGC
  switch fluorescence ratio: 0.945

## TCCGTGAGGA
  switch fluorescence ratio: 1.06

## TCGCGGTTTT
  switch fluorescence ratio: 1.06

## CCAGACATAG
  switch fluorescence ratio: 1.01

## TGGGGCTCTG
  switch fluorescence ratio: 0.971

## AGTGATTCAT
  switch fluorescence ratio: 0.994

## CGTGAGAGGC
  switch fluorescence ratio: 0.976

## CAGAGAGGTA
  switch fluorescence ratio: 1

## ATCGGCTCG
  switch fluorescence ratio: 1.01

## TTGCCCCAAT
  switch fluorescence ratio: 1.06

## ACGCCGCTCT
  switch fluorescence ratio: 1.13

## TGGAATTAAG
  switch fluorescence ratio: 0.989

## ATGTATTACA
  switch fluorescence ratio: 1.03

## TGGCCGGGGA
  switch fluorescence ratio: 1.02

## TCCGTGTCTC
  switch fluorescence ratio: 1.22

## ACAGTTTACA
  switch fluorescence ratio: 1.11

## CCCCCCGTGA
  switch fluorescence ratio: 3.4

## TGAGGTGCCT
  switch fluorescence ratio: 1.02

## TTTCACGGCC
  switch fluorescence ratio: 1.1

## TTTGAAGTAG
  switch fluorescence ratio: 1.02

## GGTAAGTAGT
  switch fluorescence ratio: 1

## ATAAAAACAG
  switch fluorescence ratio: 0.993

## TCATCATGAG
  switch fluorescence ratio: 1.03

## CTTTCGACGT
  switch fluorescence ratio: 1.38

## CCGATACGA
  switch fluorescence ratio: 1.81

## CGAGGGCTGG
  switch fluorescence ratio: 0.965

## AACGGTATGC
  switch fluorescence ratio: 1.08

## GACGGGTGCA
  switch fluorescence ratio: 1.1

## AATGTGCTAA
  switch fluorescence ratio: 1

## CGTGTCCGTC
  switch fluorescence ratio: 1.03

## TGCCTAGGTC
  switch fluorescence ratio: 1.04

## CATGCAAGTT
  switch fluorescence ratio: 1.02

## ACGATAATGG
  switch fluorescence ratio: 1.03

## TAGACTGTA
  switch fluorescence ratio: 1.04

## TTACACGAG
  switch fluorescence ratio: 1.04

## GGTAAGGTTT
  switch fluorescence ratio: 1.03

## TTGATCTGTG
  switch fluorescence ratio: 0.99

## CTAGACCTGT
  switch fluorescence ratio: 0.978

## AGGAACACC
  switch fluorescence ratio: 1.04

## AGTCAAAGAT
  switch fluorescence ratio: 0.973

## AGCACTACGG
  switch fluorescence ratio: 1.21

## TAACAAATTC
  switch fluorescence ratio: 0.992

## CGTCAGCGTA
  switch fluorescence ratio: 0.996

## TTGAGAAACT
  switch fluorescence ratio: 1.04

## CGTATCTGGT
  switch fluorescence ratio: 0.907

## CTTGAACTTG
  switch fluorescence ratio: 1

## GTTATCGTTC
  switch fluorescence ratio: 0.997

## CTGAAGACT
  switch fluorescence ratio: 0.977

## TCGGAAGTC
  switch fluorescence ratio: 1.04

## TGATATGTTG
  switch fluorescence ratio: 1.01

## TTAAATTTG
  switch fluorescence ratio: 0.978

## CGTAATACGG
  switch fluorescence ratio: 2.59

## GTGCCACCTA
  switch fluorescence ratio: 1.01

## GTTTATAGCT
  switch fluorescence ratio: 1.03

## CAGAAGATCG
  switch fluorescence ratio: 0.998

## AACACTGGGC
  switch fluorescence ratio: 0.997

## TTACGCCATC
  switch fluorescence ratio: 3.3

## AGATCGACTG
  switch fluorescence ratio: 0.989

## ATGTTCACGT
  switch fluorescence ratio: 0.97

## CGGGGAGCGG
  switch fluorescence ratio: 0.93

## AGCGAGAGAG
  switch fluorescence ratio: 1.01

## CCATAGTAGG
  switch fluorescence ratio: 1.03

## TTGGTGCGCA
  switch fluorescence ratio: 1.02

## CTGGCCGAAT
  switch fluorescence ratio: 1.04

## ACCTAAAACG
  switch fluorescence ratio: 1.05

## TTGGTGTTTG
  switch fluorescence ratio: 1

## CAGGGAGGAT
  switch fluorescence ratio: 1.02

## GTCGGTTGCG
  switch fluorescence ratio: 1.03

## GCATACCCTT
  switch fluorescence ratio: 1.09

## GCGCCTTACC
  switch fluorescence ratio: 1.47

## TACTGAGGA
  switch fluorescence ratio: 1

## TACTGCGGAC
  switch fluorescence ratio: 1.35

## AGGCGCTAAT
  switch fluorescence ratio: 0.98

## AAACCAAAAT
  switch fluorescence ratio: 1.04

## TCGATGCAGG
  switch fluorescence ratio: 1.18

## TTGGATCATC
  switch fluorescence ratio: 0.965

## TCCGGCGCGC
  switch fluorescence ratio: 1.43

## AACACAGAAA
  switch fluorescence ratio: 1.01

## GCATCGCATG
  switch fluorescence ratio: 1.07

## TATCGGTCAC
  switch fluorescence ratio: 1

## TATTTGGGCC
  switch fluorescence ratio: 0.98

## TCCATTTGAC
  switch fluorescence ratio: 1.05

## AATCAGCACG
  switch fluorescence ratio: 1.07

## TCGTACCTTC
  switch fluorescence ratio: 1.29

## TATGCTTGTT
  switch fluorescence ratio: 1.03

## TGGAGTTTCT
  switch fluorescence ratio: 0.989

## CTCGGGAGCG
  switch fluorescence ratio: 1.01

## GTGATTAGTT
  switch fluorescence ratio: 1.04

## GACACATCGA
  switch fluorescence ratio: 1.04

## AATCGCTCTC
  switch fluorescence ratio: 1.03

## TGATTGGCTC
  switch fluorescence ratio: 0.959

## GCTGTTGTGA
  switch fluorescence ratio: 0.958

## CTTTACGACT
  switch fluorescence ratio: 0.991

## CTGGCCCGG
  switch fluorescence ratio: 1.01

## GTCGCAGTGC
  switch fluorescence ratio: 2.22

## GTCATGGCCG
  switch fluorescence ratio: 1.02

## TCCATAGTA
  switch fluorescence ratio: 1.04

## GTTGTATATA
  switch fluorescence ratio: 0.993

## TGATTGCTGG
  switch fluorescence ratio: 1.03

## TTTACGGTGG
  switch fluorescence ratio: 1.05

## TCTATCATTC
  switch fluorescence ratio: 1.05

## GCACTATGTT
  switch fluorescence ratio: 0.987

## CTTTCTGATC
  switch fluorescence ratio: 0.986

## TACAAATTGC
  switch fluorescence ratio: 1.14

## GATAGTTTCT
  switch fluorescence ratio: 0.976

## TTCTTGATCC
  switch fluorescence ratio: 1.04

## TTAGATTAC
  switch fluorescence ratio: 1.03

## TCTTCGAAGA
  switch fluorescence ratio: 0.984

## CAGTTAAGGA
  switch fluorescence ratio: 0.967

## TTGGACGAGT
  switch fluorescence ratio: 1.02

## CTCCTAGCTG
  switch fluorescence ratio: 1.21
